Measured values reported in US20210355180A1 (published 2021).

B1: ABPP095a with C-terminal His6 tag (designed binder)
chain: AGGERVYLPNLNADQLCAFIRSLEDDPSQSANLLAEAKKLSEAQAPASSSSGSSSSGRASAGGERVYLPNLNADQLCAFIRSLEDDPSQSANLLAEAKKLSEAQAPKLEHHHHHH
notes: scaffold mutated variant of ABPP095
B2: ABPP095b with C-terminal His6 tag (designed binder)
chain: B1 chain with A31S, N32E, A35S, A43S, A91S, N92E, A95S, A103S
notes: as for B1
B3: ABPP095c with C-terminal His6 tag (designed binder)
chain: AGGERVYLPNLTADQLCAFIRKLEDDPSQSSELLSEAKKLSESQAPASSSSGSSSSGRASAGGERVYLPNLTADQLCAFIRKLEDDPSQSSELLSEAKKLSESQAPKLEHHHHHH
notes: as for B1

Tests used:
[1] = biological target: T1, N-terminally biotinylated human Aβ1-42 peptide (human, N-terminal biotin); experiment: SPR (Biacore 2000), peptide on SA chip
T1 construct: AnaSpec AS-24641-01; also called hAβ1-42

[2] = biological target: T2, N-terminally biotinylated human Aβ1-40 peptide (human, N-terminal biotin); experiment: SPR (Biacore 2000), peptide on SA chip
T2 construct: AnaSpec; immobilised on Neutravidin or streptavidin chips, or added in ELISA; also called hAβ1-40; biotinylated hAβ1-40

| Binder | koff [1] [s⁻¹] | kon [1] [M⁻¹ s⁻¹] | koff [2] [s⁻¹] | kon [2] [M⁻¹ s⁻¹] |
| --- | --- | --- | --- | --- |
| B1 | 0.00062 | 120000 | 0.0003 | 74000 |
| B2 | 0.0015 | 100000 | 0.00068 | 50000 |
| B3 | 0.00036 | 140000 | 0.00019 | 81000 |

Substitutions are numbered along the chain they refer to.
